Measured values: article PMC4336329 (PLoS ONE, 2015)
About 2,200 (0.71%) of roughly 310,000 compounds showed an effect of 50% or more. The effect is printed as a negative number. The list shows a part of the results.

Biological target: human ether-à-go-go-related gene (hERG) potassium channel (human, UniProt Q12809)
Test: primary screen, population patch clamp on CHO cells stably expressing hERG

Sequence of human ether-à-go-go-related gene (hERG) potassium channel (Q12809 whole entry, looked up): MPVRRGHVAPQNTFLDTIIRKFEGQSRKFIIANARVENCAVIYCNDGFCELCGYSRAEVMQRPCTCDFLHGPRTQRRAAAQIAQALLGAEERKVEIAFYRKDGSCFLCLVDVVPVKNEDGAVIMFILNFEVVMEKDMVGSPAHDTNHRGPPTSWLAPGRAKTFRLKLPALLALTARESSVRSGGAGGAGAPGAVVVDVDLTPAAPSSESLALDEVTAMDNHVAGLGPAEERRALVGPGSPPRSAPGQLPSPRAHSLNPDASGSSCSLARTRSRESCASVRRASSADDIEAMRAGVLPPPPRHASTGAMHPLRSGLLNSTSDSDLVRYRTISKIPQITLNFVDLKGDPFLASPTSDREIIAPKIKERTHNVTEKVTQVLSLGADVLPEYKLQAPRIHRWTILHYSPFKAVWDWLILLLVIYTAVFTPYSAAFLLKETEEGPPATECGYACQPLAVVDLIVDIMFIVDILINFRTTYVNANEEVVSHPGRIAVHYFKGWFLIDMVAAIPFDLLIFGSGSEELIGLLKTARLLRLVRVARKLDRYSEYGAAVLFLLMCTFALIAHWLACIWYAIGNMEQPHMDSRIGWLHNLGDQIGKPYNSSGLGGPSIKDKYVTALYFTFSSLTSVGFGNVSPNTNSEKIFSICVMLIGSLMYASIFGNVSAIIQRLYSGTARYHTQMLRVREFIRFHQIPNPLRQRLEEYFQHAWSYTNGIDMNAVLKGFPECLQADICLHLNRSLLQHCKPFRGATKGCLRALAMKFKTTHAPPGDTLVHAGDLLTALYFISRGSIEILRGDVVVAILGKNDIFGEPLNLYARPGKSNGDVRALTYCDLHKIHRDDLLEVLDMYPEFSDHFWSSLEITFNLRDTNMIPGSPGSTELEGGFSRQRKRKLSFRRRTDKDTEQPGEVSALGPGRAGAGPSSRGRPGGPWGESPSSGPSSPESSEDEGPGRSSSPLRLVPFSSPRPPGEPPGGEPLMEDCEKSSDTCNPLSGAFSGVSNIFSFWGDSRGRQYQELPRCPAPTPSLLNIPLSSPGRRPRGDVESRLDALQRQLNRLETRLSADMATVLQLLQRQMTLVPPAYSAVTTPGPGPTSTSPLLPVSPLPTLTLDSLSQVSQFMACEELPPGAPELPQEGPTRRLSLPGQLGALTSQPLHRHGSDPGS

Row | SMILES | hERG current change (%, negative = inhibition) at 1uM
1 | COc1cccc(/C=N/N(C)C2=NS(=O)(=O)c3ccccc32)c1O | 9.89%
2 | COc1ccccc1-c1c(C)nn2c(-c3ccccc3)cc(C)nc12 | 7.9%
3 | Cc1ccc2c(c1)c(N=NC(N)=S)c(O)n2Cc1ccccc1 | 18.6%
4 | O=C(CSc1n[nH]c(-c2ccc(Cl)cc2Cl)n1)Nc1ccccn1 | 9.12%
5 | COc1ccc(C(=O)N2CCNC(=O)C2CC(=O)Nc2ccc(C)c(C)c2)cc1 (stereo not shown) | 19.1%
6 | NS(=O)(=O)c1ccc(-c2ccc(C=NC3CCS(=O)(=O)C3)o2)cc1 (stereo not shown) | -0.403%
7 | Cc1ccc(C(=O)CC2SC(N)=NC2=O)cc1 (stereo not shown) | 6%
8 | O=[N+]([O-])c1cccc(S(=O)(=O)NCCc2ccccc2)c1 | 13%
9 | CCc1cc[n+](-c2nc3ccccc3nc2[N-]S(=O)(=O)c2ccc(Br)s2)cc1 | 6.99%
10 | Cc1ccc([N+](=O)[O-])c(NC(=O)COC(=O)C2CC3CCCC(C2)C3=O)c1C (stereo not shown) | 5.4%
11 | Cn1c(=O)oc2cc(S(=O)(=O)N3CCC(C(=O)Nc4ccc(OC(F)(F)F)cc4)CC3)ccc21 | 9.7%
12 | Cc1ccccc1C(=O)NC1CCN(CC(=O)NCc2cccs2)CC1 | 6.66%
13 | CCOC(=O)C1=C(COC(=O)CC(C)c2ccccc2)NC(=O)NC1C (stereo not shown) | 5.95%
14 | CCN(CC)C(=O)COC(=O)c1ccc(O)cc1 | 7.36%
15 | CC(=O)c1ccc(Oc2cc(C)nc(-n3nc(C)cc3C)n2)cc1 | -9.96%
16 | O=C(NCc1nc2ccccc2[nH]1)c1ccco1 | 8.59%
17 | CC(NC(=O)c1ccccc1NC(=O)c1ccco1)C(=O)O (stereo not shown) | 5.33%
18 | CCC(CC)NC(=O)Nc1ccccc1C(F)(F)F | 6.33%
19 | Cc1ccc(O)c(NC(=O)/C=C/C(=O)O)c1 | 39.2%
20 | CCN(CC)S(=O)(=O)c1ccc(Cl)c(NC(=O)CCCCl)c1 | -8.31%

Row | SMILES | hERG current change (%, negative = inhibition) at 1uM
21 | CC1CC(C)CN(C(=O)C2CC(=O)N(c3ccc(F)cc3)C2)C1 (stereo not shown) | -3.25%
22 | O=C(O)c1cn(-c2ccccc2)nc1C(=O)O | 11.2%
23 | CCN(CC)c1ccc(NC(=S)NC(=O)c2cccs2)cc1 | 13%
24 | COc1ccc(CNc2nc(SCC(=O)NCc3ccco3)nc3ccccc23)cc1 | -49.8%
25 | CCC1CCCCN1C(=O)CCCOc1ccccc1 (stereo not shown) | 1.24%
26 | CCOC(=O)C1CCN(c2ncnc3c2cnn3C)CC1 | 5.8%
27 | O=C(C1CC1)N1CCCC(c2ccc(Cl)cc2)=N1 | 20.2%
28 | O=C1N[C@@H](Cc2cn(S(=O)(=O)c3ccc(F)cc3)c3ccccc23)C(=O)N[C@H]1Cc1ccccc1 | 12.8%
29 | COc1ccc(CCNC(=O)c2cc(C(C)C)on2)cc1OC | 13.2%
30 | CCOC(=O)N1CCC(NC(=O)c2cnn3cccnc23)CC1 | -4.76%
31 | CCOc1ccc(N2CC(NC(=O)c3ccc4ccccc4c3)CC2=O)cc1 (stereo not shown) | 15.6%
32 | COCCN(C(=O)c1ccco1)C(C(=O)NC1CCCC1)c1cccs1 (stereo not shown) | 6.71%
33 | CS(=O)(=O)N1CCCC(C(=O)N2CCc3ccccc3C2)C1 (stereo not shown) | 4.12%
34 | COc1ccc(CNC(=O)Cn2ccc([N+](=O)[O-])n2)cc1OC | 9.7%
35 | O=C(COC(=O)COc1cccc(Br)c1)Nc1ccc(F)cc1F | 9.04%
36 | NC(=O)c1ccsc1NC(=O)CSc1nnc2ccccn12 | 9.49%
37 | Cc1ccc(/C=C/C(=O)O)cc1S(=O)(=O)NCC1CCCO1 (stereo not shown) | 10.8%
38 | CC(NC(=O)COc1ccccc1)C1COc2ccccc2O1 (stereo not shown) | -7.79%
39 | Cc1nc2ccccc2nc(C)c1=NOCc1ccc(C#N)cc1 | 2.25%
40 | C[C@@H]1CC[C@@]2(O[C@H](CCO)C[C@H](O)[C@H]2O)O1 | 22.7%

Row | SMILES | hERG current change (%, negative = inhibition) at 1uM
41 | CSc1ccccc1OCc1cc(C(=O)N(C)C2CCCc3ccccc32)no1 (stereo not shown) | 10.8%
42 | COC(=O)[C@@H](NC(=O)Nc1ccc(S(N)(=O)=O)cc1)C(C)C | 0.78%
43 | COC(=O)N(C)CCCC1(C)C(=O)N(C)c2ccc(O)cc21 (stereo not shown) | -3.35%
44 | N#CC1(NC(=O)COC(=O)c2cc(=O)[nH]c3ccccc23)CCCCC1 | 15.9%
45 | CC(C)(C)NC(=O)C1CCN(C(=O)c2ccc(Br)cc2)CC1 | -0.376%
46 | COc1cc(C(=O)Nc2ccc3ccccc3c2)cc(OC)c1OC | 10.1%
47 | NS(=O)(=O)c1ccc(Nc2ccc3nonc3c2[N+](=O)[O-])cc1 | 10.5%
48 | COc1ccc(NC(=S)N(Cc2cccnc2)Cc2cc3cc(OC)c(OC)cc3[nH]c2=O)cc1 | 15.4%
49 | CN(C)CCNC(=O)c1cccc(S(=O)(=O)Nc2ccccc2F)c1 | 14%
50 | CN(C)c1ccc(-c2nnn(CC(=O)Nc3ccccc3N3CCOCC3)n2)cc1 | -4.96%
51 | CCn1cc(CN2CCC(n3nccc3NC(=O)c3ccccc3C)CC2)cn1 | -14.9%
52 | O=C(c1ccc(-n2cnnn2)cc1)N(C1CCCCC1)C1CCCCC1 | 7.09%
53 | Cn1c(=O)c2c(SCc3cccnc3)nc(CC(C)(C)C)nc2n(C)c1=O | -12.1%
54 | COc1cc(CNC2CCCCCCC2)cc(Br)c1OCC#N.Cl | 5.27%
55 | C/C(=N\NC(=O)CNc1ccc(F)cc1)c1cc2ccccc2o1 | 1.01%
56 | Cc1cc(NC(=O)c2ccc([N+](=O)[O-])cc2)n(CCC#N)n1 | 6.73%
57 | NS(=O)(=O)c1cccc(NC(=O)COC(=O)Cc2ccc(Cl)cc2)c1 | 11.5%
58 | COc1cc2oc(=O)ccc2c(OC)c1CC(O)C(C)(C)O (stereo not shown) | 7.44%
